# Source: the supplement of paper PMC8728848
# Some of the results follow.
# Assays:
# Test in all cases: glycan array binding signal (z-score within array); higher = stronger binding
# Conditions in all cases: glycan notation: IUPAC condensed, linker removed
# [1] = molecular target: Man(a1-3)[Man(a1-6)]Man(a1-6)[Man(a1-3)]Man
# In short: (§1)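 Glycan array binding is given as a within-array Z-score, which can be read as non-binding when negative. The arrays, 3228 of them, came from the Consortium for Functional Glycomics database and were retained only where the protein sequence was available. Z-scores were averaged across arrays of the same protein sequence at different concentrations or buffers and across linkers.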
# [2] = molecular target: Man(a1-3)[Man(a1-6)]Man(a1-6)[Man(a1-3)]Man(b1-4)GlcNAc(b1-4)GlcNAc
# In short: as §1
# [3] = molecular target: Man(a1-3)[Man(a1-6)]Man(b1-4)GlcNAc(b1-4)GlcNAc
# In short: as §1
# Man(a1-6)Man = molecular target: Man(a1-6)Man
# In short: as §1
# Man(b1-4)GlcNAc = molecular target: Man(b1-4)GlcNAc
# In short: as §1
# Neu5Ac(a2-3)Gal = molecular target: Neu5Ac(a2-3)Gal
# In short: as §1
# [4] = molecular target: Neu5Ac(a2-3)Gal(b1-3)GalNAc
# In short: as §1
# [5] = molecular target: Neu5Ac(a2-3)Gal(b1-3)GalNAc(b1-3)Gal(a1-4)Gal(b1-4)Glc
# In short: as §1
# [6] = molecular target: Neu5Ac(a2-3)Gal(b1-3)GalNAc(b1-3)Gal(b1-4)GlcNAc
# In short: as §1
# [7] = molecular target: Neu5Ac(a2-3)Gal(b1-3)GalNAc(b1-4)[Neu5Ac(a2-3)]Gal(b1-4)Glc
# In short: as §1
# [8] = molecular target: Neu5Ac(a2-3)Gal(b1-3)GalNAc6S
# In short: as §1
# [9] = molecular target: Neu5Ac(a2-3)Gal(b1-3)GlcNAc
# In short: as §1
# [10] = molecular target: Neu5Ac(a2-3)Gal(b1-3)GlcNAc(b1-3)Gal(b1-3)GlcNAc
# In short: as §1
# [11] = molecular target: Neu5Ac(a2-3)Gal(b1-3)GlcNAc6S
# In short: as §1
# [12] = molecular target: Neu5Ac(a2-3)Gal(b1-3)[Fuc(a1-4)]GlcNAc
# In short: as §1
# [13] = molecular target: Neu5Ac(a2-3)Gal(b1-3)[Fuc(a1-4)]GlcNAc(b1-3)Gal(b1-4)[Fuc(a1-3)]GlcNAc
# In short: as §1
# [14] = molecular target: Neu5Ac(a2-3)Gal(b1-3)[Neu5Ac(a2-3)Gal(b1-4)]GlcNAc
# In short: as §1
# [15] = molecular target: Neu5Ac(a2-3)Gal(b1-3)[Neu5Ac(a2-6)]GalNAc
# In short: as §1
# Neu5Ac(a2-3)Gal(b1-4)Glc = molecular target: Neu5Ac(a2-3)Gal(b1-4)Glc
# In short: as §1
# [16] = molecular target: Neu5Ac(a2-3)Gal(b1-4)GlcNAc
# In short: as §1
# [17] = molecular target: Neu5Ac(a2-3)Gal(b1-4)GlcNAc(b1-2)Man(a1-3)[GlcNAc(b1-2)Man(b1-4)GlcNAc(b1-2)Man(a1-6)]Man(b1-4)GlcNAc(b1-4)GlcNAc
# In short: as §1
# [18] = molecular target: Neu5Ac(a2-3)Gal(b1-4)GlcNAc(b1-2)Man(a1-3)[Neu5Ac(a2-6)Gal(b1-4)GlcNAc(b1-2)Man(a1-6)]Man(b1-4)GlcNAc(b1-4)GlcNAc
# In short: as §1
# [19] = molecular target: Neu5Ac(a2-3)Gal(b1-4)GlcNAc(b1-3)Gal(b1-3)GlcNAc
# In short: as §1
# [20] = molecular target: Neu5Ac(a2-3)Gal(b1-4)GlcNAc(b1-3)Gal(b1-4)GlcNAc
# In short: as §1
# [21] = molecular target: Neu5Ac(a2-3)Gal(b1-4)GlcNAc(b1-3)Gal(b1-4)GlcNAc(b1-3)Gal(b1-4)GlcNAc
# In short: as §1
# [22] = molecular target: Neu5Ac(a2-3)Gal(b1-4)GlcNAc(b1-3)Gal(b1-4)[Fuc(a1-3)]GlcNAc
# In short: as §1
# [23] = molecular target: Neu5Ac(a2-3)Gal(b1-4)GlcNAc(b1-6)[Gal(b1-3)]GalNAc
# In short: as §1
# [24] = molecular target: Neu5Ac(a2-3)Gal(b1-4)GlcNAc(b1-6)[Neu5Ac(a2-3)Gal(b1-3)]GalNAc
# In short: as §1
# [25] = molecular target: Neu5Ac(a2-3)Gal(b1-4)GlcNAc6S
# In short: as §1
# [26] = molecular target: Neu5Ac(a2-3)Gal(b1-4)[Fuc(a1-3)]GlcNAc
# In short: as §1
# [27] = molecular target: Neu5Ac(a2-3)Gal(b1-4)[Fuc(a1-3)]GlcNAc(b1-3)Gal
# In short: as §1
# [28] = molecular target: Neu5Ac(a2-3)Gal(b1-4)[Fuc(a1-3)]GlcNAc(b1-3)Gal(b1-4)GlcNAc
# In short: as §1
# [29] = molecular target: Neu5Ac(a2-3)Gal(b1-4)[Fuc(a1-3)]GlcNAc(b1-3)Gal(b1-4)[Fuc(a1-3)]GlcNAc(b1-3)Gal(b1-4)[Fuc(a1-3)]GlcNAc
# In short: as §1
# [30] = molecular target: Neu5Ac(a2-3)Gal(b1-4)[Fuc(a1-3)]GlcNAc(b1-6)[Gal(b1-3)]GalNAc
# In short: as §1
# [31] = molecular target: Neu5Ac(a2-3)Gal(b1-4)[Fuc(a1-3)]GlcNAc6S
# In short: as §1
# [32] = molecular target: Neu5Ac(a2-3)Gal6S(b1-4)GlcNAc
# In short: as §1
# [33] = molecular target: Neu5Ac(a2-3)Gal6S(b1-4)[Fuc(a1-3)]GlcNAc
# In short: as §1
# Neu5Ac(a2-3)GalNAc = molecular target: Neu5Ac(a2-3)GalNAc
# In short: as §1
# [34] = molecular target: Neu5Ac(a2-3)GalNAc(b1-4)GlcNAc
# In short: as §1
# [35] = molecular target: Neu5Ac(a2-3)[GalNAc(b1-4)]Gal(b1-4)Glc
# In short: as §1
# [36] = molecular target: Neu5Ac(a2-3)[GalNAc(b1-4)]Gal(b1-4)GlcNAc
# In short: as §1
# [37] = molecular target: Neu5Ac(a2-3)[Neu5Ac(a2-6)]GalNAc
# In short: as §1
# Neu5Ac(a2-6)Gal = molecular target: Neu5Ac(a2-6)Gal
# In short: as §1
# Neu5Ac(a2-6)Gal(b1-4)Glc = molecular target: Neu5Ac(a2-6)Gal(b1-4)Glc
# In short: as §1
# [38] = molecular target: Neu5Ac(a2-6)Gal(b1-4)GlcNAc
# In short: as §1
binder,measurement,setting,value
"Gal 8 (Homo sapiens), O00214 (protein) MMLSLNNLQNIIYNPVIPFVGTIPDQLDPGTLIVIRGHVPSDADRFQVDLQNGSSMKPRADVAFHFNPRFKRAGCIVCNTLINEKWGREEITYDTPFKREKSFEIVIMVKDKFQVAVNGKHTLLYGHRIGPEKIDTLGIYGKVNIHSIGFSFSSDLQSTQASSLELTEISRENVPKSGTPQLPSNRGGDISKIAPRTVYTKSKDSTVNHTLTCTKIPPMNYVSKRLPFAARLNTPMGPGRTVVVKGEVNANAKSFNVDLLAGKSKDIALHLNPRLNIKAFVRNSFLQESWGEEERNITSFPFSPGMYFEMIIYCDVREFKVAVNGVHSLEYKHRFKELSSIDTLEINGDIHLLEVRSW",glycan array binding signal (z-score),[1],-0.434
same,glycan array binding signal (z-score),[2],-0.406
same,glycan array binding signal (z-score),[3],-0.453
same,glycan array binding signal (z-score),Man(a1-6)Man,-0.398
same,glycan array binding signal (z-score),Man(b1-4)GlcNAc,-0.448
same,glycan array binding signal (z-score),Neu5Ac(a2-3)Gal,-0.432
same,glycan array binding signal (z-score),[4],0.412
same,glycan array binding signal (z-score),[5],0.576
same,glycan array binding signal (z-score),[6],0.755
same,glycan array binding signal (z-score),[7],0.395
same,glycan array binding signal (z-score),[8],0.453
same,glycan array binding signal (z-score),[9],0.355
same,glycan array binding signal (z-score),[10],0.949
same,glycan array binding signal (z-score),[11],0.307
same,glycan array binding signal (z-score),[12],-0.352
same,glycan array binding signal (z-score),[13],-0.382
same,glycan array binding signal (z-score),[14],-0.423
same,glycan array binding signal (z-score),[15],-0.374
same,glycan array binding signal (z-score),Neu5Ac(a2-3)Gal(b1-4)Glc,0.268
same,glycan array binding signal (z-score),[16],-0.178
same,glycan array binding signal (z-score),[17],0.146
same,glycan array binding signal (z-score),[18],-0.429
same,glycan array binding signal (z-score),[19],0.136
same,glycan array binding signal (z-score),[20],0.109
same,glycan array binding signal (z-score),[21],1.28
same,glycan array binding signal (z-score),[22],0.629
same,glycan array binding signal (z-score),[23],0.196
same,glycan array binding signal (z-score),[24],0.32
same,glycan array binding signal (z-score),[25],0.295
same,glycan array binding signal (z-score),[26],-0.426
same,glycan array binding signal (z-score),[27],-0.429
same,glycan array binding signal (z-score),[28],-0.392
same,glycan array binding signal (z-score),[29],-0.431
same,glycan array binding signal (z-score),[30],-0.41
same,glycan array binding signal (z-score),[31],-0.429
same,glycan array binding signal (z-score),[32],-0.415
same,glycan array binding signal (z-score),[33],-0.42
same,glycan array binding signal (z-score),Neu5Ac(a2-3)GalNAc,-0.426
same,glycan array binding signal (z-score),[34],-0.378
same,glycan array binding signal (z-score),[35],-0.452
same,glycan array binding signal (z-score),[36],-0.435
same,glycan array binding signal (z-score),[37],-0.405
same,glycan array binding signal (z-score),Neu5Ac(a2-6)Gal,-0.417
same,glycan array binding signal (z-score),Neu5Ac(a2-6)Gal(b1-4)Glc,-0.083
same,glycan array binding signal (z-score),[38],-0.436
